# The list shows a part of the results.
# B1: PX14375F-bfa-539-21-539 (Bacteroides fragilis) (protein)
# chain: EDFLQKDPPSSPSQSVFWQKKSDFESALAGTYSVMYSGVFSQIMPCLDGLTDNAIVQHSEGTYGWAKTIAQGDLTPNQGGFVTDIYGNCYKGIARVHILMEQLDQYTGSDISADEKKFMLAQCKALRGYFYSWLYQCYKEVPVVTQSLDLNTMYQPKATRAEVLNRVMTDYDEAISELPDKLYSDSQTSGRFTVSAVKALKARILLFDAYDSNGKAISSKMEEVLTLLQSIKGYSLAARVRDNFISEKQLASPEIMFSVRFLRPNLTHSMDLYYGAWAVLDPTRNMVDAFECTDGKPWGESPLTVRPDESILYGNDDALKKAERAKMFMNRDRRLYESVNHSMMANFVDDGFKDEEVQVNESNNKGPTGFSALKYVQPTDVTPGYSTVSDADIVVLRYAHVLLMIAEAENEAHGATTTALNAINEVRTRSGQPAIEAGISQDDLRERIRNEWRIETCFEGLRYFQLKRWKLMDKRVNGVEDPAYPGYIKVYKPAFEFFPIPQSEIDKAGGVLKQDPAYE
# How the values were obtained:
# Assay in all cases: glycan array binding signal (z-score within array); higher = stronger binding
# Settings in all cases: glycan notation: IUPAC condensed, linker removed
# [1] = molecular target: Neu5Ac(a2-6)Gal(b1-4)GlcNAc(b1-2)Man(a1-3)[Neu5Ac(a2-3)Gal(b1-4)GlcNAc(b1-2)Man(a1-6)]Man(b1-4)GlcNAc(b1-4)GlcNAc
# In short: (§1)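 Columns mapping to the same glycan were averaged after glycan names were converted to IUPAC-condensed notation. The data come from 3228 arrays in the Consortium for Functional Glycomics database, limited to those with an available protein sequence. Binding is reported as a within-array Z-score averaged across arrays of one protein sequence and across linkers.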
# [2] = molecular target: Neu5Ac(a2-6)Gal(b1-4)GlcNAc(b1-2)Man(a1-3)[Neu5Ac(a2-6)Gal(b1-4)GlcNAc(b1-2)Man(a1-6)]Man(b1-4)GlcNAc(b1-4)GlcNAc
# In short: as §1
# [3] = molecular target: Neu5Ac(a2-6)Gal(b1-4)GlcNAc(b1-2)Man(a1-3)[Neu5Ac(a2-6)Gal(b1-4)GlcNAc(b1-2)Man(a1-6)]Man(b1-4)GlcNAc(b1-4)[Fuc(a1-6)]GlcNAc
# In short: as §1
# [4] = molecular target: Neu5Ac(a2-6)Gal(b1-4)GlcNAc(b1-2)Man(a1-6)Man(b1-4)GlcNAc(b1-4)GlcNAc
# In short: as §1
# [5] = molecular target: Neu5Ac(a2-6)Gal(b1-4)GlcNAc(b1-2)Man(a1-6)[Gal(b1-4)GlcNAc(b1-2)Man(a1-3)]Man(b1-4)GlcNAc(b1-4)GlcNAc
# In short: as §1
# [6] = molecular target: Neu5Ac(a2-6)Gal(b1-4)GlcNAc(b1-2)Man(a1-6)[GlcNAc(b1-2)Man(a1-3)]Man(b1-4)GlcNAc(b1-4)GlcNAc
# In short: as §1
# [7] = molecular target: Neu5Ac(a2-6)Gal(b1-4)GlcNAc(b1-2)Man(a1-6)[Man(a1-3)]Man(b1-4)GlcNAc(b1-4)GlcNAc
# In short: as §1
# [8] = molecular target: Neu5Ac(a2-6)Gal(b1-4)GlcNAc(b1-2)[Neu5Ac(a2-6)Gal(b1-4)GlcNAc(b1-4)]Man(a1-3)[GlcNAc(b1-4)][Neu5Ac(a2-6)Gal(b1-4)GlcNAc(b1-2)[Neu5Ac(a2-6)Gal(b1-4)GlcNAc(b1-6)]Man(a1-6)]Man(b1-4)GlcNAc(b1-4)GlcNAc
# In short: as §1
# [9] = molecular target: Neu5Ac(a2-6)Gal(b1-4)GlcNAc(b1-2)[Neu5Ac(a2-6)Gal(b1-4)GlcNAc(b1-4)]Man(a1-3)[GlcNAc(b1-4)][Neu5Ac(a2-6)Gal(b1-4)GlcNAc(b1-4)Man(a1-6)]Man(b1-4)GlcNAc(b1-4)GlcNAc
# In short: as §1
# [10] = molecular target: Neu5Ac(a2-6)Gal(b1-4)GlcNAc(b1-2)[Neu5Ac(a2-6)Gal(b1-4)GlcNAc(b1-6)]Man(a1-6)[Neu5Ac(a2-6)Gal(b1-4)GlcNAc(b1-2)Man(a1-3)][GlcNAc(b1-4)]Man(b1-4)GlcNAc(b1-4)GlcNAc
# In short: as §1
# [11] = molecular target: Neu5Ac(a2-6)Gal(b1-4)GlcNAc(b1-3)Gal(b1-3)GlcNAc
# In short: as §1
# [12] = molecular target: Neu5Ac(a2-6)Gal(b1-4)GlcNAc(b1-3)Gal(b1-4)GlcNAc
# In short: as §1
# [13] = molecular target: Neu5Ac(a2-6)Gal(b1-4)GlcNAc(b1-3)Gal(b1-4)GlcNAc(b1-2)Man(a1-3)[Neu5Ac(a2-6)Gal(b1-4)GlcNAc(b1-3)Gal(b1-4)GlcNAc(b1-2)Man(a1-6)]GalNAc
# In short: as §1
# [14] = molecular target: Neu5Ac(a2-6)Gal(b1-4)GlcNAc(b1-3)Gal(b1-4)GlcNAc(b1-3)Gal(b1-4)GlcNAc
# In short: as §1
# [15] = molecular target: Neu5Ac(a2-6)Gal(b1-4)GlcNAc(b1-3)Gal(b1-4)GlcNAc(b1-3)Gal(b1-4)GlcNAc(b1-2)Man(a1-3)[Neu5Ac(a2-6)Gal(b1-4)GlcNAc(b1-3)Gal(b1-4)GlcNAc(b1-3)Gal(b1-4)GlcNAc(b1-2)Man(a1-6)]GalNAc
# In short: as §1
# [16] = molecular target: Neu5Ac(a2-6)Gal(b1-4)GlcNAc(b1-3)Gal(b1-4)GlcNAc(b1-3)GalNAc
# In short: as §1
# [17] = molecular target: Neu5Ac(a2-6)Gal(b1-4)GlcNAc(b1-3)Gal(b1-4)GlcNAc(b1-3)[Neu5Ac(a2-6)Gal(b1-4)GlcNAc(b1-3)Gal(b1-4)GlcNAc(b1-6)]GalNAc
# In short: as §1
# [18] = molecular target: Neu5Ac(a2-6)Gal(b1-4)GlcNAc(b1-3)Gal(b1-4)GlcNAc(b1-6)[Gal(b1-3)]GalNAc
# In short: as §1
# [19] = molecular target: Neu5Ac(a2-6)Gal(b1-4)GlcNAc(b1-3)Gal(b1-4)[Fuc(a1-3)]GlcNAc(b1-3)Gal(b1-4)[Fuc(a1-3)]GlcNAc
# In short: as §1
# [20] = molecular target: Neu5Ac(a2-6)Gal(b1-4)GlcNAc(b1-3)GalNAc
# In short: as §1
# [21] = molecular target: Neu5Ac(a2-6)Gal(b1-4)GlcNAc(b1-3)[Neu5Ac(a2-6)Gal(b1-4)GlcNAc(b1-6)]GalNAc
# In short: as §1
# [22] = molecular target: Neu5Ac(a2-6)Gal(b1-4)GlcNAc(b1-6)GalNAc
# In short: as §1
# [23] = molecular target: Neu5Ac(a2-6)Gal(b1-4)GlcNAc(b1-6)[Gal(b1-3)GlcNAc(b1-3)]Gal(b1-4)Glc
# In short: as §1
# [24] = molecular target: Neu5Ac(a2-6)Gal(b1-4)GlcNAc(b1-6)[Gal(b1-3)]GalNAc
# In short: as §1
# [25] = molecular target: Neu5Ac(a2-6)Gal(b1-4)GlcNAc6S
# In short: as §1
# [26] = molecular target: Neu5Ac(a2-6)GalNAc
# In short: as §1
# [27] = molecular target: Neu5Ac(a2-6)GalNAc(b1-4)GlcNAc
# In short: as §1
# [28] = molecular target: Neu5Ac(a2-6)GalNAc(b1-4)GlcNAc6S
# In short: as §1
# [29] = molecular target: Neu5Ac(a2-6)GlcNAc(b1-4)GlcNAc
# In short: as §1
# [30] = molecular target: Neu5Ac(a2-6)GlcNAc(b1-4)GlcNAc(b1-4)GlcNAc
# In short: as §1
binder,measurement,setting,value
B1,glycan array binding signal (z-score),[1],-0.082
same,glycan array binding signal (z-score),[2],0.007
same,glycan array binding signal (z-score),[3],0.378
same,glycan array binding signal (z-score),[4],-0.138
same,glycan array binding signal (z-score),[5],-0.223
same,glycan array binding signal (z-score),[6],0.767
same,glycan array binding signal (z-score),[7],-0.518
same,glycan array binding signal (z-score),[8],-1.01
same,glycan array binding signal (z-score),[9],-0.061
same,glycan array binding signal (z-score),[10],-0.074
same,glycan array binding signal (z-score),[11],0.055
same,glycan array binding signal (z-score),[12],0.279
same,glycan array binding signal (z-score),[13],1.22
same,glycan array binding signal (z-score),[14],-0.803
same,glycan array binding signal (z-score),[15],2.67
same,glycan array binding signal (z-score),[16],-0.898
same,glycan array binding signal (z-score),[17],-0.22
same,glycan array binding signal (z-score),[18],-0.919
same,glycan array binding signal (z-score),[19],-0.045
same,glycan array binding signal (z-score),[20],-0.096
same,glycan array binding signal (z-score),[21],-0.565
same,glycan array binding signal (z-score),[22],-0.605
same,glycan array binding signal (z-score),[23],-0.588
same,glycan array binding signal (z-score),[24],0.16
same,glycan array binding signal (z-score),[25],-0.062
same,glycan array binding signal (z-score),[26],-0.642
same,glycan array binding signal (z-score),[27],-0.662
same,glycan array binding signal (z-score),[28],-0.188
same,glycan array binding signal (z-score),[29],0.231
same,glycan array binding signal (z-score),[30],-0.585
